Source: the supplement of paper PMC11417369
± gives the standard deviation of the averaged measurements. The list shows a part of the results.

System: PfAP2-G AP2 domain (GST-tagged)
Test: gcPBM binding intensity (ln(normalized median fluorescence intensity)); higher = stronger DNA binding
Method in brief: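 After 1 h on an Agilent 4 × 180k array of primer-extended double-stranded 36-bp intergenic genomic probes and negative controls, bound GST-tagged P. falciparum DNA-binding domains were detected with Alexa488 anti-GST antibody and scanned at 488 nm. The domains had been expressed in E. coli, and binding took place in 1× PBS with 1% milk, 0.2 mg/ml BSA, 0.5% salmon testes DNA and 0.03% Triton X-100. Binding intensity is the highest Masliner-normalised natural-log median intensity across replicate spots of either probe orientation.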

Sequence	gcPBM binding intensity (ln)
TATAATATATATGTAACACACAAAAGTTATATACTT [CACACA_site2868]	9.985 ± 0.064
AAAATAAATATAAAATGTACTTATATATATATATAT [XGTACX_site7803]	10.9 ± 0.7
TATGAAGTGCACAATACACACTAATTCTATATAAAT [CACACA_site7269]	10.5 ± 0.46
ATAATTAAATAAAAAAGTACACATACATCATAATGC [XGTACX_site7656]	11.5 ± 0.87
CAATTAAAAAATAATACATGCATATAAATAGATATT [TGCATGCA_site427]	9.72 ± 0.16
TAAGAATACGAAAGGTGTACACTGTGGAGACTTCAA [XGTACX_site2619]	11.5 ± 0.83
ATATATTATATTTAAGTGCATTAATTAAAATGCTTA [GTGCAC_site9403]	9.84 ± 0.14
AAAAAAAATCAGACAGGTACACATTCCATGTTCAAA [XGTACX_site5380]	11.1 ± 0.69
CATTAATATATATATAGTACATATACACCTTCATTA [XGTACX_site8473]	10.9 ± 0.53
TATTCATGCATATACACACACATATATTTATATTTT [CACACA_site7786]	9.975 ± 0.078
TTGTGAATAACTAAGAAGAAAAAGATAAATATGTAT [TGCATGCA_negctrl_site388]	9.93 ± 0.16
TTTTGTTATATTCAATATTTATATATTATAAATATA [CACACA_negctrl_site1705]	9.955 ± 0.092
TTTTTCTTTTTTACAGTGCATAAATATATGTATTGT [GTGCAC_site9399]	10.1 ± 0.32
AATAATATTGAAATGTGTACGTATTTATATTTTATG [XGTACX_site8252]	11.6 ± 1
AGCCATTATAATTCTTGTACATAATATAGCTATTTT [XGTACX_site1723]	10.8 ± 0.3
ATCATTGAAGTTAAAAATATAAAGTATTCAGAAGGG [XGTACX_negctrl_site560]	10.2 ± 0.25
AATATATATATAGGATGTACACATAATTCAAATATA [XGTACX_site2755]	11.4 ± 0.81
TCACTTTTATAATATAATATTCTATATCTTATTTTT [GTGCAC_negctrl_site717]	9.74 ± 0.16
TTTTTTATTTTATTTTTTTCTGCTTATCCACATTAG [XGTACX_negctrl_site108]	9.93 ± 0.44
GAGCACCAAAATATATGTACATATGATAAATGTGAA [XGTACX_site1130]	11.3 ± 0.81
ACATATATATAATATATATTTTTCGTGTGGTGTCAC [CACACA_negctrl_site543]	10.01 ± 0.028
TTATGGAGAGTTATATGTACGAAAAATATGTATAAG [XGTACX_site515]	11 ± 0.59

Sequence	gcPBM binding intensity (ln)
AGAATTATTGTTAATGCATGTGGAAGTTAAAATATT [TGCATGCA_site188]	10.03 ± 0.035
AATAAATTAAAACAGGTGCACTATATTACACACGCT	10.3 ± 0.25
TAGATACAGAAACACACACACACATACATATATACA [CACACA_site3437]	10.01 ± 0.042
TATAATATATATTTGTGTCCACAACATTTTTAATAT [XGTACX_site2089]	11.3 ± 0.73
TATTTAAATTGTAAGTGTACATATATAAATGTAAAA [XGTACX_site1609]	11.3 ± 0.93
TATATAGTAATTTATTCACACAATTGGCACACCTCA [CACACA_site4679]	10.2 ± 0.23
TTACGTATGTATTATGTTGTATATGAAATTAAAAAA [GTGCAC_negctrl_site292]	10.04 ± 0.099
AAAAAAAACAGACACACACACATACACATACATACA [CACACA_site2857]	10.2 ± 0.14
TAATTATGTACTATTATACACACGTTTAATTGTAAA [CACACA_site206]	11.2 ± 0.77
TAGATACATACACGCACACACATATATAAATAAATA [CACACA_site6157]	10.4 ± 0.45
TATAAAAAAATAATAAATAAATAAAAAGATTTCTTT [TGCATGCA_negctrl_site122]	9.29 ± 0.34
AATAATATATGGTGTACACAAAAGTATAAATAATTT [CACACA_site5338]	11.9 ± 1
TTATTATTAAGACACACACACAAAAAAAAAAAAAAA [CACACA_site6805]	9.91 ± 0.54
TTTCCAATTAGTTTTGCATGTTGAAAAAATGTTGGA [TGCATGCA_site1035]	9.81 ± 0.099
TAAAAAGGAAAACACACACACACATATATATATATA [CACACA_site3588]	10.1 ± 0.45
ATTTTTAAGCATATCAAAAAAAAAAAAAAAATTAAT [CACACA_negctrl_site980]	9.72 ± 0.22
TTACTAAAAATTATTAATAAATAATAATTATAAATT [GTGCAC_negctrl_site310]	9.52 ± 0.028
TATCATAAACTTCCTTACTATACTTTTCTTATTCAT [CACACA_negctrl_site1341]	10.1 ± 0.12
CTTTGTAGTATATTAACACACAACTATTTATAATAT [CACACA_site3934]	9.99 ± 0.085
TATTTTAACTTCTCATGTACATATATTATGTCTATA [XGTACX_site249]	11.1 ± 0.65
TTTCATGTTTTAAAGTGTACATAAATATATTATATG [XGTACX_site3367]	11.5 ± 0.89
ACCATACATACATACACACACACACCCATATATATA [CACACA_site2917]	10.3 ± 0.19

Sequence	gcPBM binding intensity (ln)
TTTTTAATAAAATGATTGATAATTATTAAATTAAAA [CACACA_negctrl_site488]	9.45 ± 0.057
TTGTGTTTGCGTAAATGTACGGAAAGACTTGAAGAC [XGTACX_site7235]	11 ± 0.64
TTGTTAGAGTATATTGAAAGGATAACCTTTTTTTAT [XGTACX_negctrl_site122]	9.65 ± 0.11
TAACATATCTTTAATACACACTTAAAAAAGTACTTA [CACACA_site4532]	11.3 ± 0.89
TTGATGTATACAATGTAGATTATTTAATATTTCAAT [GTGCAC_negctrl_site203]	9.78
TTATATAACCCTCATGCATGCTAAGAAAAAAAAAAC [TGCATGCA_site936]	10.2 ± 0.33
ATTTATATTATAATATGTACACAAAAAAAATTAGGA [XGTACX_site565]	11.6 ± 0.95
GGAAACACAATATATACACACATATATATATATATA [CACACA_site235]	9.98 ± 0.23
ACACTTAAATATTGTTGTACAAAATGATAAAATGTA [XGTACX_site4588]	11.2 ± 0.7
TTTTTTTTTTAATTCGCACACTGTCTTCATGCAATT [CACACA_site4882]	10.04 ± 0.049
TTAAAAAATTTTTAAGCACACACATAGATAATATAT [CACACA_site8440]	10.4 ± 0.23
GCACATCTATATGAAACACACATGGAAACATCTCTT [CACACA_site7793]	10.01 ± 0.057
ACATCTCTTATATATTCACACACATATATATAATTA [CACACA_site8424]	10.07 ± 0.028
AGTATATATTATATATATATATATATATTATATATG [TGCATGCA_negctrl_site99]	9.6 ± 0.11
ATAGAATATTATATTACACACAGAATAATAAAAAAT [CACACA_site86]	9.885 ± 0.007
AGCATTAAAAATGGAATGGAATTAAGCTATATATTA [CACACA_negctrl_site1571]	9.58 ± 0.26
GAAACTTCAAGAAATGCACACAATAAAATAAATAAA [CACACA_site1549]	10.1 ± 0.19
CATTTCGAAAAAAAATGTACTTATTATATTTATATA [XGTACX_site6752]	11.2 ± 0.89
TGTATATATTATAAAAGTACATAATATTCTTAGATA [XGTACX_site5623]	11.3 ± 0.83
TTATCTTACATAAATTATAACAATAATATGTGTATA [XGTACX_negctrl_site379]	9.96 ± 0.042
AACCACAGACATATAACACACATATACAATATATAT [CACACA_site5142]	10.2 ± 0.28
CTTTTTTTGACCTTAGTGCAAATAACTATATATTAT	10.4 ± 0.39

Sequence	gcPBM binding intensity (ln)
TAAAAAAAAAAATGAACATGCAACAATTGTGATGAA [TGCATGCA_site332]	9.74 ± 0.32
ACTGTAACAATCATGGGTACAAATAAAATAATATCT [XGTACX_site99]	11.2 ± 0.73
ATGAAAATTATAAAGTGTACATATAGAAACATTTAC [XGTACX_site8047]	11.4 ± 0.99
TTTCGATTAAAAATTGTACAATATAAGGAGCACACA [GTGCAC_negctrl_site476]	11.2 ± 0.64
AAAAGAATATATAATTGTACTTAAAATATAATTAAG [XGTACX_site4484]	11.1 ± 0.74
TTTTGTCTTATATGTTGTACAACGTAAACAAAAAAA [XGTACX_site4412]	11.5 ± 0.82
ATTTAAGTAGTACATACACACACATATACAAAAAGA [CACACA_site9317]	11.7 ± 1.3
AAAAAAATTAAACATGAAGAATAAGGAACAAAAAAA [CACACA_negctrl_site1607]	10.1 ± 0.014
TTTAATCATATGTTATATAATAAGCCCCCCCCCCAA [CACACA_negctrl_site486]	11.6 ± 0.86
ATGGGACATATATATACACACATATATATATATATA [CACACA_site1202]	10.2 ± 0.3
AATATAGTTCAATATACACACCCCTTTATTCATTTT [CACACA_site3625]	9.94 ± 0.12
GTAACATACACATATACACACACACCGATATACATA [CACACA_site8278]	10.2 ± 0.18
TATACAATCTATATAACACACATATTTATATAAAAT [CACACA_site1797]	9.84 ± 0.057
ATTAATTAAGGCACATGTACAAAATATTTTTTATAA [XGTACX_site1964]	10.8 ± 0.45
ATATAATATATGTATACACACATATTATATAATATT [CACACA_site3699]	9.995 ± 0.035
ATGAACAGTTCATGTTGTACAATCTCCATTTTTTAC [XGTACX_site3933]	11.2 ± 0.6
ACAAAACGAACATACGCATGTGTGTACATTAATATA [TGCATGCA_site922]	11.3 ± 0.77
TTATTTACATCAAGTACATGCAGTAAAAAAAAAAAA [TGCATGCA_site351]	11 ± 0.82
CACCAATTCCTATGCACACACATCTGCATATTATAT [CACACA_site5049]	10.21 ± 0.099
TGTCGGCTTAGATTAGTGCACTGAAAAATGAAGTAT [GTGCAC_site9919]	10.3 ± 0.23
TATTTATATAAAAATACACACATGAATGGATATATA [CACACA_site6335]	10.03 ± 0.042
